Hit rate of the full screen: of about 310,000 compounds, about 2,200 (0.71%) showed an effect of 50% or more. The effect is printed as a negative number. This is one part of the list.
Biological target: human ether-à-go-go-related gene (hERG) potassium channel (human, UniProt Q12809)
Test: primary screen, population patch clamp on CHO cells stably expressing hERG

Sequence of human ether-à-go-go-related gene (hERG) potassium channel (Q12809 whole entry, looked up): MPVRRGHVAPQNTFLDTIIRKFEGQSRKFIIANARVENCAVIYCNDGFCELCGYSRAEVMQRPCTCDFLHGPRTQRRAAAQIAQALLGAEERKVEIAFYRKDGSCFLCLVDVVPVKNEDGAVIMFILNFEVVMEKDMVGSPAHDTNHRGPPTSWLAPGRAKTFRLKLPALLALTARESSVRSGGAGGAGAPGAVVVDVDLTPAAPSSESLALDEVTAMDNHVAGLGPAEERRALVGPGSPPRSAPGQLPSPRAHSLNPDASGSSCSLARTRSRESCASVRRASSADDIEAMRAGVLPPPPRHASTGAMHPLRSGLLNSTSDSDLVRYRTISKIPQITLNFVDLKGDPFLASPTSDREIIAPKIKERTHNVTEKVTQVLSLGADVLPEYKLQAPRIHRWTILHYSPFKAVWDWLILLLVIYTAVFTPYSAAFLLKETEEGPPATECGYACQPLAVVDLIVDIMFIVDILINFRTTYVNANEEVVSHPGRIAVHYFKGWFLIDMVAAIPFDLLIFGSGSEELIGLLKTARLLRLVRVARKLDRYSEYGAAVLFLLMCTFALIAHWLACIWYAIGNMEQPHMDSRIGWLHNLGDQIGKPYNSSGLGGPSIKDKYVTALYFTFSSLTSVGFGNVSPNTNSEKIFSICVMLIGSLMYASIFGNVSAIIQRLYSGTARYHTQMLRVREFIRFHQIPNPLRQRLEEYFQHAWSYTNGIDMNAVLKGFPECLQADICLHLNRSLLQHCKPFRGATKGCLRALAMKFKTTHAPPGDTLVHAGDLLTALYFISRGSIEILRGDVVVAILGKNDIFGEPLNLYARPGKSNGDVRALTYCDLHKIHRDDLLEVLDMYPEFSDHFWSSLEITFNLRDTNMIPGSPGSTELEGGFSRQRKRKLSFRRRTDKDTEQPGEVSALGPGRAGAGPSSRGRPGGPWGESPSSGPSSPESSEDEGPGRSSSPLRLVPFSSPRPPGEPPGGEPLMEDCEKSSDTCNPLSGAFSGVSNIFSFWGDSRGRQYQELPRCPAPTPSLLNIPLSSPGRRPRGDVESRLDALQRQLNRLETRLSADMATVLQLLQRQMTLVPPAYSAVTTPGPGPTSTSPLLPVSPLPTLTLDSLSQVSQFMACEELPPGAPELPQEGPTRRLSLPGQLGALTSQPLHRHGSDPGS

Row | Compound | hERG current change (%, negative = inhibition) at 1uM
1 | O=c1c2ccccc2n2c(=S)[nH]nc2n1-c1ccccc1 | 25.1%
2 | CCc1c(C2(O)CCCCC2)[nH]c2c(C(=O)OC)cc(Cl)cc12 | 11.3%
3 | CCOC(=O)C1=C(COC(=O)COc2cc(C)ccc2C)NC(=O)NC1C (stereo not shown) | 6.04%
4 | CN(CCNC(=O)C1CC(=O)N(c2ccc(F)c(Cl)c2)C1)Cc1ccccc1 (stereo not shown) | -3.07%
5 | CS(=O)(=O)n1nc(-c2ccccc2)nc1NCc1ccco1 | 6.65%
6 | CCOc1ccccc1-c1n[nH]c(=S)o1 | 20%
7 | Cn1cc(Br)c(C(=O)NC(=S)N2CCN(c3ccccn3)CC2)n1 | 13.4%
8 | O=C(NCc1nc2ccccc2[nH]1)C1=C[C@H](c2ccccc2)C[C@H](OCCCCO)O1 | 4.57%
9 | Cc1cc(C)c2nc(N3CCN(C(=O)c4ccco4)CC3)sc2c1 | 0.971%
10 | Fc1ccc2c(c1)nnn2C1CCN(Cc2ccccc2)CC1 | -32.8%
11 | COC(=O)c1ccccc1NS(=O)(=O)c1ccc2[nH]c(=O)[nH]c2c1 | 10.4%
12 | COc1ccccc1N1CCN(S(=O)(=O)CCNC(=O)c2cc(=O)c3ccccc3o2)CC1 | 19.2%
13 | Cc1cc(C)n(C(C)CNS(=O)(=O)c2ccccc2)n1 (stereo not shown) | 13.6%
14 | CCN(CC)S(=O)(=O)c1ccc(Cl)nc1 | 8.21%
15 | CCN(CC)C(=O)COc1ccc(S(=O)(=O)N2CCOCC2)cc1 | -1.36%
16 | Cn1cc(S(=O)(=O)CC(=O)Nc2ccc3c(c2)OCO3)c2ccccc21 | -1.12%
17 | Cc1noc(C)c1C(=O)N1CCC(C(=O)c2ccccc2)CC1 | 0.0598%
18 | O=C(N/N=C/c1cccnc1)c1ccccc1NS(=O)(=O)c1cccs1 | 25.5%
19 | Cc1ccc(C(C(=O)NC2CCCCC2)N(Cc2ccco2)C(=O)C2COc3ccccc3O2)o1 (stereo not shown) | -0.947%
20 | COc1ccc(C(=O)NC2CCN(C(=O)Nc3ccc(F)cc3)CC2)cc1 | -2%
21 | CCOc1cc(/C=C/c2cccc[n+]2C)ccc1OCC(=O)Nc1ccc(C)cc1.[I-] | 7.39%
22 | O=S(=O)(c1ccc(Nc2ccc(-c3ccc4c(c3)OCCO4)nn2)cc1)N1CCCC1 | -3.29%
23 | Cc1nn(-c2ccccc2)c(N2CCCC2)c1/C=N/Nc1ccc(S(=O)(=O)Nc2ccccc2)cc1[N+](=O)[O-] | 12.8%
24 | CCOC(=O)N1CCN(C(=O)c2cccc(NC3=NC4CS(=O)(=O)CC4S3)c2)CC1 (stereo not shown) | 8.98%
25 | COCCNC(=O)C1=C(N)C(C(=O)Nc2ccc(C)c(S(=O)(=O)N3CCCCC3)c2)SC1=Nc1ccc(C)cc1C (stereo not shown) | 10.8%
26 | CCSC1=C(C#N)C(=O)n2c1cc1c2CCCC1 | 3.51%
27 | CCOC(=O)c1sc2nc3n(c(=O)c2c1C)CCC3 | 4.66%
28 | CC1CCc2c(C(=O)Nc3ccc(OC(F)(F)F)cc3)csc2C1 (stereo not shown) | -3.13%

Row | Compound | hERG current change (%, negative = inhibition) at 1uM
29 | COc1ccc(C(=O)N/C(=C\c2cn(S(=O)(=O)N(C)C)c3ccccc23)C(=O)NCCN2CCOCC2)cc1 | 8.08%
30 | CCCc1cc(=O)oc2cc(OCC(=O)N3CCC(C(=O)O)(c4ccccc4)CC3)ccc12 | 8.14%
31 | CSc1ccccc1NC(=O)Nc1cccc(Cl)c1C | 11.9%
32 | COc1ccc(-n2c(Cc3cccn3C)nnc2SCC(=O)NCC2CCCO2)cc1 (stereo not shown) | 8.84%
33 | COc1ccc(Cn2c(O)c(/C=N/NC(=O)c3ccncc3)c(=O)[nH]c2=O)cc1 | 14.3%
34 | COc1ccc(CN(C)C(=O)Cn2ccc(NC(=O)OCc3ccccc3)nc2=O)cc1OC | 7.41%
35 | COc1cc(/C=C2/NC(=O)NC2=O)cc(Br)c1OCc1cccc(C(=O)O)c1 | 13.3%
36 | N#CCCn1nnc2ccccc21 | 11%
37 | C=CCn1c(SC(F)F)nc2scc(-c3ccco3)c2c1=O | 15.7%
38 | N#C/C(=C(/O)c1ccc(Cl)cc1)c1nc2ccccc2[nH]1 | 10.1%
39 | O=C(NCCC1=CCCCC1)c1ccc(Cl)c(S(=O)(=O)Nc2ccccc2)c1 | 14.8%
40 | Cc1ccccc1NC(=O)Nc1c(C)n(C)n(-c2ccccc2)c1=O | -9.17%
41 | CCOC(=O)c1cc2c(nc1NC(=S)Nc1ccccc1)CC(C)(CC)OC2 (stereo not shown) | 12.6%
42 | CC(C)(C)c1cccc(Oc2nn[nH]n2)c1 | 5.23%
43 | CC1(C)CC(=O)c2c(oc3cc(O)c(O)cc23)C1 | 9.92%
44 | CCOC(=O)C1=C(C)N(C)C(=S)NC1c1ccccc1Cl (stereo not shown) | 10.7%
45 | CCOC(=O)CCS(=O)(=O)c1ccc(-c2ccc(S(=O)(=O)CCC(=O)OCC)cc2)cc1 | -4.99%
46 | COc1cccc(CNC(=O)C2CCC(CNc3nc(=S)[nH]c4ccccc34)CC2)c1 (stereo not shown) | -4.24%
47 | COc1ccc(-n2c(SC3CCOC3=O)nc3ccccc3c2=O)cc1OC (stereo not shown) | 4.4%
48 | Cc1cc(OCC(=O)NC2CC(C)(C)NC(C)(C)C2)c(C)cc1Br | -1.02%
49 | Cn1c(SCC(=O)Nc2ccc3c(c2)OCCO3)nnc1-c1ccco1 | 10.9%
50 | Cn1c2ccccc2c2nnc(N/N=C/c3ccc(O)cc3)nc21 | 17.1%
51 | O=C(COC(=O)C1CCC1)Nc1ccc(OC(F)F)cc1 | 9.3%
52 | O=C(COc1ccccc1)NCCS(=O)(=O)N1CCN(c2ccccc2)CC1 | 9.21%
53 | CCOc1ccc(Nc2ccc(N3C(=O)CCC3=O)cc2[N+](=O)[O-])cc1 | 9.18%
54 | Cc1[nH]c2ccc(OC(F)(F)F)cc2c1CCN1C(=O)c2ccc(C(=O)O)cc2C1=O | 23.8%
55 | CCN(CC)S(=O)(=O)c1ccc2oc(C(=O)NCCN3CCOCC3)c(C)c2c1 | 9.07%

— article PMC4336329 (PLoS ONE, 2015)
